Test results as given in the supplement of paper PMC11125491.
± gives the standard deviation of the averaged measurements. Growth of baker's yeast expressing single-residue variants of Pneumocystis jirovecii dihydrofolate reductase in 8.8 or 44 µM methotrexate (about 75% and 90% inhibition of the wild type). Selection coefficient per generation; 0 = like wild type, above 0 = less sensitive, below 0 = more sensitive or loss of function. No active / inactive call per row; the paper calls resistant above 0.220 (8.8 µM) or 0.243 (44 µM) together with a significance test. At 44 µM about 15% of codons end with one read or none, so the lowest values are floors (replicate rank correlation 0.74; 0.94 at 8.8 µM).

B1: UniProt A0EPZ9; numbered along this chain (parent)
chain: MDWQKSLTLIVALTLSRGIGLKNDLPWKLKSDMMFFSRVTSGLLVTRSTGQMNVVLMGRKTWESLPAHSRPLKNRINVVISRQEVLDLGGGAYHARSLDDALALLSQIYDSTSKIQLNRVFVIGGGELCKAAMEHSRLNRIIATVIHNEVDCDVFFPIDFRSSQSCLPWRKQDHSVLEAWVGSKVPQGKINENGFIYEFEMWIRDI

Variants of: B1
Test: selection coefficient against synonymous wild-type codons (log2 per generation); higher = faster growth than wild type
Conditions: with Saccharomyces cerevisiae carrying the variant on a plasmid
Procedure: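 Pooled growth of yeast carrying single-residue variants of P. jirovecii dihydrofolate reductase (own DFR1 gene intact), two passages at 30 °C, three cultures, sequenced before and after. Codons with under 15 starting reads are left out; codons of one change are averaged.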

Row | Variant | selection coefficient against synonymous wild-type codons (log2) (methotrexate 8.8 µM) | selection coefficient against synonymous wild-type codons (log2) (methotrexate 44 µM)
1 | S136H | -0.0533 ± 0.03 | -0.105 ± 0.15
2 | S136I | -0.177 ± 0.037 | -0.174 ± 0.13
3 | S136K | 0.0602 ± 0.033 | -0.0523 ± 0.23
4 | S136L | -0.212 ± 0.063 | -0.189 ± 0.14
5 | S136M | -0.136 ± 0.017 | 0.00986 ± 0.074
6 | S136N | 0.00789 ± 0.038 | 0.0153 ± 0.05
7 | S136P | 0.237 ± 0.036 | 0.314 ± 0.065
8 | S136Q | -0.0128 ± 0.021 | -0.062 ± 0.065
9 | S136R | -0.108 ± 0.04 | -0.116 ± 0.11
10 | S136T | -0.0562 ± 0.041 | -0.0732 ± 0.17
11 | S136V | -0.12 ± 0.031 | -0.1 ± 0.091
12 | S136W | -0.0793 ± 0.016 | -0.149 ± 0.17
13 | S136Y | -0.206 ± 0.044 | -0.251 ± 0.087
14 | R137A | 0.138 ± 0.039 | 0.242 ± 0.066
15 | R137C | 0.0354 ± 0.014 | 0.0709 ± 0.05
16 | R137D | -0.11 ± 0.045 | -0.113 ± 0.11
17 | R137E | -0.0495 ± 0.012 | 0.0238 ± 0.069
18 | R137F | -0.167 ± 0.043 | -0.191 ± 0.18
19 | R137G | 0.158 ± 0.043 | 0.287 ± 0.13
20 | R137H | -0.00178 ± 0.023 | 0.109 ± 0.032
21 | R137I | -0.356 ± 0.11 | -0.234 ± 0.12
22 | R137K | 0.0851 ± 0.011 | 0.251 ± 0.095
23 | R137L | -0.101 ± 0.04 | -0.0978 ± 0.1

Row | Variant | selection coefficient against synonymous wild-type codons (log2) (methotrexate 8.8 µM) | selection coefficient against synonymous wild-type codons (log2) (methotrexate 44 µM)
24 | R137M | 0.00973 ± 0.033 | -0.0165 ± 0.12
25 | R137N | 0.1 ± 0.027 | 0.16 ± 0.015
26 | R137P | -0.248 ± 0.075 | -0.225 ± 0.047
27 | R137Q | 0.077 ± 0.057 | 0.195 ± 0.12
28 | R137S | 0.105 ± 0.028 | 0.195 ± 0.065
29 | R137T | -0.0588 ± 0.023 | -0.0694 ± 0.094
30 | R137V | -0.289 ± 0.038 | -0.324 ± 0.17
31 | R137W | -0.0465 ± 0.029 | 0.025 ± 0.052
32 | R137Y | -0.0908 ± 0.0077 | -0.0362 ± 0.13
33 | L138A | 0.297 ± 0.024 | 0.424 ± 0.033
34 | L138C | 0.188 ± 0.041 | 0.2 ± 0.048
35 | L138D | -0.226 ± 0.0049 | -0.115 ± 0.11
36 | L138E | -0.105 ± 0.053 | -0.0919 ± 0.073
37 | L138F | 0.277 ± 0.02 | 0.386 ± 0.017
38 | L138G | 0.223 ± 0.033 | 0.325 ± 0.051
39 | L138H | -0.0836 ± 0.017 | -0.113 ± 0.041
40 | L138I | -0.0156 ± 0.013 | -0.0583 ± 0.17
41 | L138K | -0.0939 ± 0.064 | -0.113 ± 0.12
42 | L138M | -0.0411 ± 0.039 | -0.0194 ± 0.14
43 | L138N | -0.104 ± 0.054 | -0.117 ± 0.12
44 | L138P | 0.118 ± 0.035 | 0.0232 ± 0.16
45 | L138Q | -0.119 ± 0.062 | -0.0791 ± 0.21
46 | L138R | -0.306 ± 0.058 | -0.162 ± 0.088

Row | Variant | selection coefficient against synonymous wild-type codons (log2) (methotrexate 8.8 µM) | selection coefficient against synonymous wild-type codons (log2) (methotrexate 44 µM)
47 | L138S | 0.172 ± 0.034 | 0.212 ± 0.072
48 | L138T | 0.17 ± 0.031 | 0.222 ± 0.087
49 | L138V | 0.0788 ± 0.038 | -0.000229 ± 0.16
50 | L138W | 0.139 ± 0.038 | 0.224 ± 0.11
51 | L138Y | 0.0182 ± 0.024 | 0.0602 ± 0.025
52 | N139A | -0.255 ± 0.12 | -0.0843 ± 0.18
53 | N139C | -0.102 ± 0.03 | -0.104 ± 0.13
54 | N139D | -0.00332 ± 0.025 | 0.0405 ± 0.019
55 | N139E | -0.0587 ± 0.04 | -0.0852 ± 0.057
56 | N139F | -0.287 ± 0.15 | -0.0314 ± 0.043
57 | N139G | -0.0367 ± 0.036 | -0.0283 ± 0.054
58 | N139H | -0.154 ± 0.2 | -0.0271 ± 0.0047
59 | N139K | -0.102 ± 0.028 | -0.144 ± 0.096
60 | N139L | -0.438 ± 0.088 | -0.247 ± 0.15
61 | N139M | -0.321 ± 0.076 | -0.302 ± 0.12
62 | N139P | -0.423 ± 0.12 | -0.226 ± 0.08
63 | N139Q | -0.126 ± 0.079 | -0.213 ± 0.045
64 | N139R | -0.246 ± 0.077 | -0.218 ± 0.11
65 | N139S | -0.0614 ± 0.018 | -0.0309 ± 0.06
66 | N139T | -0.0394 ± 0.057 | 0.00763 ± 0.15
67 | N139V | -0.315 ± 0.036 | -0.222 ± 0.11
68 | N139W | -0.392 ± 0.1 | -0.332 ± 0.07
69 | N139Y | -0.221 ± 0.028 | -0.369 ± 0.042

Row | Variant | selection coefficient against synonymous wild-type codons (log2) (methotrexate 8.8 µM) | selection coefficient against synonymous wild-type codons (log2) (methotrexate 44 µM)
70 | R140A | 0.151 ± 0.039 | 0.188 ± 0.047
71 | R140C | 0.114 ± 0.0064 | 0.0724 ± 0.075
72 | R140D | -0.231 ± 0.079 | -0.197 ± 0.033
73 | R140E | -0.0202 ± 0.0075 | 0.0289 ± 0.048
74 | R140F | -0.199 ± 0.083 | -0.187 ± 0.046
75 | R140G | 0.0713 ± 0.024 | 0.121 ± 0.062
76 | R140H | 0.0205 ± 0.015 | 0.0952 ± 0.09
77 | R140I | -0.206 ± 0.051 | -0.155 ± 0.12
78 | R140K | 0.00524 ± 0.051 | 0.0908 ± 0.12
79 | R140L | -0.304 ± 0.081 | -0.266 ± 0.11
80 | R140M | -0.019 ± 0.023 | -0.0717 ± 0.034
81 | R140N | 0.0456 ± 0.068 | 0.0894 ± 0.079
82 | R140P | -0.388 ± 0.1 | -0.127 ± 0.06
83 | R140Q | 0.0916 ± 0.027 | 0.0888 ± 0.078
84 | R140S | 0.111 ± 0.04 | 0.118 ± 0.18
85 | R140T | 0.0992 ± 0.048 | 0.102 ± 0.046
86 | R140V | -0.0454 ± 0.026 | -0.0816 ± 0.076
87 | R140W | -0.4167 ± 0.0039 | -0.38 ± 0.04
88 | R140Y | -0.153 ± 0.08 | -0.102 ± 0.12
89 | I141A | -0.437 ± 0.089 | -0.224 ± 0.046
90 | I141C | -0.108 ± 0.043 | -0.192 ± 0.16
91 | I141D | -0.666 ± 0.049 | -0.163 ± 0.039
92 | I141E | -0.811 ± 0.05 | -0.281 ± 0.17

Row | Variant | selection coefficient against synonymous wild-type codons (log2) (methotrexate 8.8 µM) | selection coefficient against synonymous wild-type codons (log2) (methotrexate 44 µM)
93 | I141F | -0.35 ± 0.057 | -0.34 ± 0.051
94 | I141G | -0.731 ± 0.13 | -0.33 ± 0.069
95 | I141H | -0.568 ± 0.025 | -0.0668 ± 0.057
96 | I141K | -0.628 ± 0.11 | -0.168 ± 0.041
97 | I141L | -0.373 ± 0.081 | -0.223 ± 0.099
98 | I141M | -0.214 ± 0.028 | -0.32 ± 0.088
99 | I141N | -0.767 ± 0.031 | -0.307 ± 0.022
100 | I141P | -0.72 ± 0.062 | -0.217 ± 0.078
101 | I141Q | -0.699 ± 0.11 | -0.265 ± 0.083
102 | I141R | -0.708 ± 0.1 | -0.257 ± 0.069
103 | I141S | -0.623 ± 0.11 | -0.187 ± 0.069
104 | I141T | -0.399 ± 0.15 | -0.261 ± 0.1
105 | I141V | 0.074 ± 0.021 | 0.102 ± 0.038
106 | I141W | -0.573 ± 0.08 | -0.363 ± 0.12
107 | I141Y | -0.596 ± 0.025 | -0.0938 ± 0.052
108 | I142A | -0.215 ± 0.067 | -0.199 ± 0.08
109 | I142C | 0.118 ± 0.034 | 0.52 ± 0.054
110 | I142D | -0.765 ± 0.038 | -0.261 ± 0.044
111 | I142E | -0.724 ± 0.011 | -0.176 ± 0.15
112 | I142F | 0.175 ± 0.024 | 0.359 ± 0.063
113 | I142G | -0.478 ± 0.077 | -0.155 ± 0.18
114 | I142H | -0.0555 ± 0.023 | 0.0062 ± 0.11
115 | I142K | -0.679 ± 0.084 | -0.289 ± 0.07
